Laboratory results reported in PubChem BioAssay AID2147 (National Center for Advancing Translational Sciences (NCATS), 2009).
Among all 230,000 compounds or so, about 3,600 (1.6%) were called active. The inconclusive results got no clear call from the source; some entries with a clear call stand among them for comparison. The call rests on the fitted dose curve; in most records, active means well fitted inhibition curve with a large enough effect (not every such curve was filed as active); inconclusive means small, poorly fitted or top-dose-only effect, or another doubt; inactive means no such curve, though single readings can be large or run the other way. Where the call is inconclusive, the potency comes from a doubtful curve fit.

What follows are compounds tested against Lysine-specific demethylase 4E (Homo sapiens) (UniProt B2RXH2) (assay: qHTS Assay for Inhibitors of Human Jumonji Domain Containing 2E (JMJD2E)). Settings: JMJD2E catalytic domain, FDH-coupled NADH fluorescence (FDH is formaldehyde dehydrogenase); series mostly up to 57.1 µM.
Further: nearly all actives have a fitted effect of over 50% in size.
Potency means the concentration at half of the fitted maximal effect; tags describe the fitted curve by direction and shape.

UniProt B2RXH2, sequence (B2RXH2 whole entry, looked up, the tested form may be a part): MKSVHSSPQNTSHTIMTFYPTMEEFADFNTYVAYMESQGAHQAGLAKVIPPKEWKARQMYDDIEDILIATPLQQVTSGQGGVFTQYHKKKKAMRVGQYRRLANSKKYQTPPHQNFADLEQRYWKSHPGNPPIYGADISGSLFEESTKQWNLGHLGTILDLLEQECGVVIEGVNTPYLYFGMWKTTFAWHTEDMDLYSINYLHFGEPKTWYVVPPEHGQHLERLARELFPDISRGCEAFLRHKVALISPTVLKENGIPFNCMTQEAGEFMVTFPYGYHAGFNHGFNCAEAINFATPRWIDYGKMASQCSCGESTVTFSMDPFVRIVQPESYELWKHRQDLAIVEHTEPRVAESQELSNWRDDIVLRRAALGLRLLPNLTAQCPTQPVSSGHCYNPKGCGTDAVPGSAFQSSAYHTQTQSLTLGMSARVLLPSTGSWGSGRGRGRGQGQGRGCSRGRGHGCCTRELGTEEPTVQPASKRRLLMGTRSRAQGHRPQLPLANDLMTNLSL

| Structure (SMILES) | Potency |
| --- | --- |
| CCOC(=O)C(NC(C)=O)(NS(=O)(=O)c1ccccc1)C(F)(F)F (centres undefined) | inactive |
| CC(C)CN1C(=O)c2ccc(NC(=O)c3ccccc3F)cc2C1=O | inconclusive: 25.1 µM [inhibitor, partial curve] |
| Cc1cc(NC(=O)c2ccccc2F)ncc1NC(=O)c1cccs1 | inconclusive: 35.5 µM [inhibitor, single point] |
| O=C(c1cc(-c2cccc(O)c2)on1)N1CCCCC1 | inactive |
| CC(C)N(Cc1nc(-c2ccccc2)no1)C(=O)CN(C)S(=O)(=O)c1ccc(Br)cc1 | inactive |
| CCOC(=O)c1[nH]c2cc(OC)c(OC)cc2c1NC(=O)CN1CCN(C)CC1 | inconclusive: 28.2 µM [inhibitor, partial curve] |
| CCCCn1c(-c2cc(Cl)ccc2OC)n[nH]c1=S | inconclusive: 20 µM [inhibitor, partial curve] |
| Cc1cc(N=Cc2c(O)n(-c3cccc(C(F)(F)F)c3)c(=O)c3ccccc23)no1 | inconclusive: 3.98 µM [inhibitor, full curve] |
| CCC(C)NCCOc1ccc(Br)cc1 (centres undefined) | inactive |
| CC(C)(C)NC(=S)NCCc1ccccc1 | inactive |
| CNC(=S)N(Cc1cc2cc(OC)c(OC)cc2[nH]c1=O)C1CCCC1 | inconclusive: 28.2 µM [inhibitor, partial curve] |
| CCCOc1ccc(-c2nnc(-c3ccncc3)o2)cc1 | inconclusive: 25.1 µM [inhibitor, partial curve] |
| COc1ccc(-n2nc3c(c2NC(=O)C2CC2)CS(=O)C3)cc1 (centres undefined) | inactive |
| CC(C)(C)N(CC#CCC(O)(c1ccccc1)c1ccccc1)CCO | inactive |
| COc1ccc(NS(=O)(=O)c2cc(NC(=O)/C=C/c3cc(OC)c(OC)c(OC)c3)ccc2N2CCCCC2)cc1 | inconclusive: 25.1 µM [inhibitor, single point] |
| CCOC(=O)C(NC(=O)NC1CCCCC1)(c1ccccc1)C(F)(F)F (centres undefined) | inactive |
| CCOC(=O)C(=N/O)/C(C)=N/NC(=O)C(=O)Nc1cc(Cl)ccc1Cl | inactive |
| CN1CCN(C(=O)/C(C#N)=C/c2ccc(F)cc2)CC1 | inactive |
| C[C@@]12CCC=C[C@H]1[C@H](c1ccc3ccccc3c1/C=C/c1ccccc1)N(Cc1ccccc1)C2=O | inconclusive: 28.2 µM [inhibitor, partial curve] |
| CCN1C(=O)/C(=C/C=C2\N(CC)c3cc(S(=O)(=O)N(C)C)ccc3N2c2ccccc2)SC1=S | inactive |
| CC(=O)C1=C(c2ccccc2)OC(N)=C(C#N)C1c1ccc(O)cc1 (centres undefined) | inactive |
| Nc1ccc(-c2nnc(-c3ccc(-c4ccccc4)cc3)o2)cc1 | inconclusive: 7.94 µM [inhibitor, partial curve] |
| O=C(Nc1cnc2ccccc2c1)c1ccncc1 | inactive |

| Structure (SMILES) | Potency |
| --- | --- |
| COc1ccc2[nH]c(C)c(CCN(Cc3cccs3)C(=S)Nc3ccccc3OC)c2c1 | inconclusive: 25.1 µM [inhibitor, single point] |
| COc1cccc2c(=O)c(C/C=C(/C)Cl)c(C)[nH]c12 | inconclusive: 22.4 µM [inhibitor, partial curve] |
| CC(C)CN1C(=O)c2ccc(C(=O)Nc3ccccn3)cc2C1=O | inactive |
| CCn1c(SCC(=O)Nc2ccc(-c3nc4ccc(C)cc4s3)cc2)nnc1-c1ccccc1 | inconclusive: 25.1 µM [inhibitor, partial curve] |
| O=C(O)c1ccccc1C(=O)Nc1ccccn1 | inconclusive: 39.8 µM [inhibitor, single point] |
| Cc1ccc(N=Nc2c(N)nn(-c3ccccc3)c2N)cc1 | inactive |
| Cc1cc(Cl)ccc1OCCn1cncn1 | inactive |
| CCOC(=O)C1=C(C)NC(C)=C(C(=O)OCC)C1C(=O)OCC(=O)c1ccc2c(c1)OCCO2 | inconclusive: 31.6 µM [inhibitor, single point] |
| CN(CCOc1ccc(Cl)cc1)c1ccc(S(=O)(=O)N2CCCCC2)cn1 | inconclusive: 35.5 µM [inhibitor, single point] |
| O=C1/C(=C/c2ccccn2)SC(=S)N1N1CCOCC1 | inactive |
| COc1ccccc1/C=N\Nc1cc(C)nc(-n2nc(C)cc2C)n1 | inconclusive: 35.5 µM [inhibitor, single point] |
| CCN(CC)S(=O)(=O)c1cccc(C(=O)N/N=C2\CC(=O)CC(C)(C)C2)c1 | inconclusive: 31.6 µM [inhibitor, single point] |
| O=C1CC(c2ccc(O)c(O)c2)Oc2cc(O)cc(O)c21 (centres undefined) | active: 28.2 µM |
| Cc1ccc(C)c(Cc2c(C)nc3c(C(=O)NCc4ccc5c(c4)OCO5)cnn3c2C)c1 | inconclusive: 31.6 µM [inhibitor, partial curve] |
| COc1ccc2c(c1)c1ncnc(N3CCN(Cc4ccc5c(c4)OCO5)CC3)c1n2C | inconclusive: 6.31 µM [inhibitor, partial curve] |
| CCOc1cc(S(=O)(=O)N(CC)CC)c(OCC)cc1-n1cnnn1 | inconclusive: 28.2 µM [inhibitor, partial curve] |
| COc1ccc(/C=N/NC(=O)c2cccc(NC(C)=O)c2)c(OC)c1 | inconclusive: 39.8 µM [inhibitor, single point] |
| Oc1c(C(Nc2cccc(C(F)(F)F)c2)c2ccncc2)ccc2cccnc12 (centres undefined) | inconclusive: 28.2 µM [inhibitor, single point] |
| COc1ccc(/C=C/C(=O)N2CCN(S(=O)(=O)/C=C/c3ccccc3)CC2)cc1OC | inconclusive: 5.01 µM [inhibitor, single point] |
| Cc1cc(=O)n2[nH]c(C)c(-c3ccccc3)c2n1 | inactive |
| CC(C)Cn1c(-c2ccc(C#N)cc2)nc2c1c(=O)[nH]c(=O)n2CC(C)C | inconclusive: 28.2 µM [inhibitor, partial curve] |
| CC(C)OCCCNc1ncnc2c1[nH]c1ccccc12 | inconclusive: 31.6 µM [inhibitor, partial curve] |
| C[C@@H]1C=C[C@](Cc2ccccc2)(C(=O)NCCCNc2ncc(C(F)(F)F)cc2Cl)N1C(=O)c1ccccc1 | inconclusive: 28.2 µM [inhibitor, single point] |

| Structure (SMILES) | Potency |
| --- | --- |
| COc1cc(/C=N/NC(=O)c2nc(-c3ccccc3)n(-c3ccccc3)n2)ccc1O | inconclusive: 39.8 µM [inhibitor, single point] |
| CC1Cc2nc(SCC(=O)Nc3ccc4c(c3)OCO4)n(Cc3ccccc3)c(=O)c2S1 (centres undefined) | inconclusive: 7.08 µM [inhibitor, partial curve] |
| Cc1cccc(-n2c(C)cc(C=C(C#N)C#N)c2C)c1 | inactive |
| CCC(C(=O)OC)(C(=O)OC)c1ccc([N+](=O)[O-])cc1 | inactive |
| CCOc1ccccc1N1CCN(Cc2ccc(Br)s2)CC1 | inconclusive: 28.2 µM [inhibitor, single point] |
| CCN(CC)c1ccc(/C=N/N2CCOCC2)c(O)c1 | inconclusive: 17.8 µM [inhibitor, partial curve] |
| COc1ccc(CCNC(=O)CC2SC(=NCc3ccccc3)NC2=O)cc1 (centres undefined) | inactive |
| OC[C@H]1O[C@@H](Oc2cc(O)cc(/C=C/c3ccc(O)cc3)c2)[C@H](O)[C@@H](O)[C@@H]1O | inconclusive: 31.6 µM [inhibitor, partial curve] |
| COc1nc(-c2ccccc2)cc(-c2ccc3c(c2)OCO3)c1C#N | inconclusive: 14.1 µM [inhibitor, partial curve] |
| CC(C)(C)C1CCc2c(sc(NC(=O)c3cc(C4CC4)on3)c2C#N)C1 (centres undefined) | inconclusive: 35.5 µM [inhibitor, single point] |
| CCOc1cc2nc(-c3ccc(OC)c(OC)c3)nc(N3CC(C)OC(C)C3)c2cc1OC (centres undefined) | inconclusive: 14.1 µM [inhibitor, partial curve] |
| COC(=O)c1ccc(Oc2coc3cc(OCc4ccc([N+](=O)[O-])cc4)ccc3c2=O)cc1 | inconclusive: 39.8 µM [inhibitor, single point] |
| COc1ccc(OCC(=O)N/N=C/c2ccc(N(C)C)cc2)cc1 | inconclusive: 28.2 µM [inhibitor, partial curve] |
| COc1ccc(C(=O)n2nc(C)c(Br)c2C)cc1 | inactive |
| Cc1cc(=O)c2c(C)nn(-c3ccccc3)c2[nH]1 | inconclusive: 39.8 µM [inhibitor, single point] |
| CC(C)c1ccc(/C=C/C(=O)O)cc1 | inconclusive: 25.1 µM [inhibitor, single point] |
| O=C(O)c1ccc(N/N=C/c2cc3ccccc3nc2Cl)cc1 | inconclusive: 28.2 µM [inhibitor, single point] |
| CN(C)S(=O)(=O)c1ccc(C(=O)Oc2cc(=O)[nH]c3ccccc23)cc1 | inconclusive: 39.8 µM [inhibitor, single point] |
| Cc1nc(C)c(C(=O)C2=C(O)C(=O)N(CCN(C)C)C2c2cccs2)s1 (centres undefined) | inconclusive: 3.55 µM [inhibitor, partial curve] |
| NC(=O)CSc1nnc(-c2cc3ccccc3o2)n1Cc1ccccc1 | inconclusive: 35.5 µM [inhibitor, single point] |
| CCc1cc2c(=O)c(-c3nc4ccccc4n3C)c(CCCC(=O)O)oc2cc1OC(=O)C(C)(C)C | inconclusive: 22.4 µM [inhibitor, partial curve] |
| NS(=O)(=O)c1cccc(NC(=O)c2cc(-c3cccs3)nc3ccccc23)c1 | inconclusive: 28.2 µM [inhibitor, partial curve] |
| O=C(CN1C(=O)/C(=C/c2ccccc2F)Sc2ccccc21)N1CCN(c2ccccn2)CC1 | inconclusive: 39.8 µM [inhibitor, single point] |
